Test results as given in the supplement of paper PMC3334620.
The full ranking holds about 33,000 sequences; the median of “E-score (-0.5 to 0.5)” is about -0.04, and the highest 2% start at about 0.36. Some of the results follow.

molecular target: T1, Hmlalpha2 (UniProt P0CY09); experiment: PBM E-score (8-mer binding enrichment) (E-score (-0.5 to 0.5)); higher = stronger / more preferred TF binding; most listed sequences are background and not binding sites; conditions: protein concentration: 200 nM; construct: GST-full length
T1 sequence: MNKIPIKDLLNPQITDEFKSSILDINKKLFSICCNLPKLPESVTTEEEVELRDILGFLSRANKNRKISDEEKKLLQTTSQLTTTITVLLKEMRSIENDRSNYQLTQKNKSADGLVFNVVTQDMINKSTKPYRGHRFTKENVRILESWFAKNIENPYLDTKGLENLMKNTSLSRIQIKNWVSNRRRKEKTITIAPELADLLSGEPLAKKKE
Procedure, shortened: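 Yeast transcription factors carrying a GST tag, as full-length proteins or DNA-binding domains, were produced by PURExpress in vitro transcription/translation. About 100-200 nM protein was applied to universal all-10-mer Agilent arrays, double-stranded by primer extension on fresh or once-stripped slides. Bound protein was detected with fluorescent anti-GST, and scans were normalised with masliner. The Universal PBM Analysis Suite gave each ungapped eight-base word, pooled with its reverse complement, an E-score, a modified Wilcoxon-Mann-Whitney statistic.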

Q: Which “PBM E-score” value does the source give for TACACACA here?
A: 0.43

Q: Which “PBM E-score” value does the source give for CTAACAAA here?
A: 0.151

Q: With AACCAGTA as the sequence, how does the “PBM E-score” value read?
A: 0.0041

Q: How did the “PBM E-score” value turn out when GTAACAAC was run?
A: 0.305

Q: With AAGTCTTA as the sequence, how does the “PBM E-score” value read?
A: 0.138

Q: GCTAACAA was tested. Which “PBM E-score” value did it give?
A: 0.164

Q: GGCGTGCA was tested. Which “PBM E-score” value did it give?
A: -0.128

Q: With AAACTGAT as the sequence, how does the “PBM E-score” value read?
A: -0.00305

Q: CTCAGTTC was tested. Which “PBM E-score” value did it give?
A: -0.111

Q: How did the “PBM E-score” value turn out when ATAATGAG was run?
A: -0.101

Q: Which “PBM E-score” value does the source give for CACACCTG here?
A: -0.108

Q: With GCCTACCA as the sequence, how does the “PBM E-score” value read?
A: -0.305

Q: How did the “PBM E-score” value turn out when AGGCACGG was run?
A: -0.263

Q: Which “PBM E-score” value does the source give for CCATGCTA here?
A: 0.0439

Q: Which “PBM E-score” value does the source give for ATCTGTCG here?
A: 0.0277

Q: For TCTTCAAA, which “PBM E-score” value is on record?
A: -0.0296

Q: For ATCCCTTA, which “PBM E-score” value is on record?
A: -0.141

Q: AAGACGTG was tested. Which “PBM E-score” value did it give?
A: 0.131

Q: For GCATAGTA, which “PBM E-score” value is on record?
A: 0.0392

Q: AGATTGAT was tested. Which “PBM E-score” value did it give?
A: 0.00281

Q: Which “PBM E-score” value does the source give for GCCGTCTA here?
A: -0.184

Q: With CATGTTGA as the sequence, how does the “PBM E-score” value read?
A: 0.477

Q: How did the “PBM E-score” value turn out when AAGGAGCG was run?
A: -0.199

Q: For GACGTTAC, which “PBM E-score” value is on record?
A: 0.248

Q: GTCTGGAA was tested. Which “PBM E-score” value did it give?
A: -0.205

Q: With GATATCCC as the sequence, how does the “PBM E-score” value read?
A: -0.1

Q: Which “PBM E-score” value does the source give for AATTCACC here?
A: 0.0859

Q: AAGATGGC was tested. Which “PBM E-score” value did it give?
A: -0.189

Q: Which “PBM E-score” value does the source give for ATGATCGA here?
A: 0.0342

Q: Which “PBM E-score” value does the source give for GATATGCA here?
A: -0.0633

Q: Which “PBM E-score” value does the source give for CAATGTGC here?
A: -0.0156

Q: With ACGGATCC as the sequence, how does the “PBM E-score” value read?
A: -0.18

Q: With AGGGTACC as the sequence, how does the “PBM E-score” value read?
A: -0.217

Q: GCGACATA was tested. Which “PBM E-score” value did it give?
A: 0.105

Q: TACCCTAA was tested. Which “PBM E-score” value did it give?
A: -0.0923

Q: With GTGCAACA as the sequence, how does the “PBM E-score” value read?
A: -0.0669

Q: With AGGTTTAT as the sequence, how does the “PBM E-score” value read?
A: 0.0762

Q: For GTGTGATA, which “PBM E-score” value is on record?
A: 0.283

Q: Which “PBM E-score” value does the source give for CACTTACC here?
A: 0.162

Q: TGCCATAA was tested. Which “PBM E-score” value did it give?
A: -0.178

Q: Which “PBM E-score” value does the source give for CGGGGAAA here?
A: -0.0657

Q: Which “PBM E-score” value does the source give for GAAGTAAC here?
A: 0.0761

Q: With CGATGTTA as the sequence, how does the “PBM E-score” value read?
A: 0.353

Q: CAACTTAA was tested. Which “PBM E-score” value did it give?
A: 0.236

Q: CCTGTGCG was tested. Which “PBM E-score” value did it give?
A: -0.0561

Q: For AGTAGAAA, which “PBM E-score” value is on record?
A: 0.124

Q: Which “PBM E-score” value does the source give for CGGTCGCC here?
A: -0.16

Q: Which “PBM E-score” value does the source give for CTACACCC here?
A: 0.0904

Q: GCGGCCAC was tested. Which “PBM E-score” value did it give?
A: -0.309

Q: Which “PBM E-score” value does the source give for TCGCACCA here?
A: -0.0912

Q: With CGCACGGA as the sequence, how does the “PBM E-score” value read?
A: -0.12

Q: For GAGATTAC, which “PBM E-score” value is on record?
A: 0.0945

Q: How did the “PBM E-score” value turn out when TAGCTTGA was run?
A: -0.159

Q: CCCTCGCG was tested. Which “PBM E-score” value did it give?
A: -0.199

Q: Which “PBM E-score” value does the source give for TAGTGCGA here?
A: -0.117

Q: For ATAATTGA, which “PBM E-score” value is on record?
A: 0.0689

Q: GACGAAGA was tested. Which “PBM E-score” value did it give?
A: 0.0546

Q: For ATCCCTCC, which “PBM E-score” value is on record?
A: -0.168

Q: Which “PBM E-score” value does the source give for CGTGTAAC here?
A: 0.443

Q: CGGTATCC was tested. Which “PBM E-score” value did it give?
A: -0.145

Q: With TTACCCAA as the sequence, how does the “PBM E-score” value read?
A: 0.02

Q: Which “PBM E-score” value does the source give for ACCACACT here?
A: 0.0159

Q: For ATAAATAT, which “PBM E-score” value is on record?
A: 0.135

Q: How did the “PBM E-score” value turn out when CTGAGGGC was run?
A: -0.3

Q: With ATAGGAGG as the sequence, how does the “PBM E-score” value read?
A: -0.225

Q: TGGAATAA was tested. Which “PBM E-score” value did it give?
A: -0.00689

Q: With AGTGAGAA as the sequence, how does the “PBM E-score” value read?
A: -0.0698

Q: With AGTACCAT as the sequence, how does the “PBM E-score” value read?
A: -0.00906

Q: Which “PBM E-score” value does the source give for GCTCGCTA here?
A: -0.0434

Q: AGCGCGCG was tested. Which “PBM E-score” value did it give?
A: 0.052

Q: For AATTCACT, which “PBM E-score” value is on record?
A: 0.147

Q: How did the “PBM E-score” value turn out when ACAGTCCT was run?
A: -0.193

Q: For AAACCTCG, which “PBM E-score” value is on record?
A: -0.183

Q: With ATTGAAGA as the sequence, how does the “PBM E-score” value read?
A: 0.0407

Q: Which “PBM E-score” value does the source give for ATCCTCAC here?
A: -0.0377

Q: For AGCTACCC, which “PBM E-score” value is on record?
A: -0.105

Q: Which “PBM E-score” value does the source give for CAGACATG here?
A: 0.189

Q: Which “PBM E-score” value does the source give for ATTATGCC here?
A: 0.00988

Q: For CGACCGTC, which “PBM E-score” value is on record?
A: -0.121

Q: ACAACCGA was tested. Which “PBM E-score” value did it give?
A: 0.103

Q: How did the “PBM E-score” value turn out when AATTTTTC was run?
A: 0.0835

Q: How did the “PBM E-score” value turn out when CGCACTCC was run?
A: -0.303

Q: ACCCGAAT was tested. Which “PBM E-score” value did it give?
A: -0.168

Q: Which “PBM E-score” value does the source give for ATCTAAAA here?
A: -0.108

Q: Which “PBM E-score” value does the source give for CTGATAAC here?
A: 0.182

Q: AACGGACA was tested. Which “PBM E-score” value did it give?
A: 0.0995

Q: For CCTAATGC, which “PBM E-score” value is on record?
A: -0.08

Q: For AGGCGTAC, which “PBM E-score” value is on record?
A: 0.145

Q: For ACGGAGCC, which “PBM E-score” value is on record?
A: -0.268

Q: With ACTGACTG as the sequence, how does the “PBM E-score” value read?
A: -0.134

Q: How did the “PBM E-score” value turn out when TAATACTA was run?
A: 0.262

Q: How did the “PBM E-score” value turn out when ATCCGCAC was run?
A: -0.0873

Q: GGATACAC was tested. Which “PBM E-score” value did it give?
A: 0.126

Q: CACAATCA was tested. Which “PBM E-score” value did it give?
A: -0.0456
